Assay results reported in the supplement of paper PMC6135742.
Where a name gives a salt, the structure may show the parent alone. ± gives the standard deviation of the averaged measurements. Over roughly 2,600 compounds, “total cell number (DAPI+ nuclei) relative to DMSO vehicle control” has its median near -1.4; the lowest 2% begin near -23. This is one part of the list.

These molecules were tested on jimpy (Plp1 jimpy) mouse iPSC-derived oligodendrocyte progenitor cells (assay: total cell number (DAPI+ nuclei) relative to DMSO vehicle control (SDs above negative control mean); higher = more surviving cells). Details: 10 µM; 3 days.
Method: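 Primary phenotypic screen of >3,000 bioactive compounds (Selleck L1700 and Sigma LO1280 libraries) at a single dose of 10 µM. Compounds were added to jimpy (Plp1 mutant) mouse iPSC-derived OPCs at the start of thyroid hormone-induced oligodendrocyte differentiation, one well per compound in 384-well plates. After 3 days cells were stained for MBP, Sox10 and DAPI and imaged with an Operetta system. MBP+ oligodendrocyte number and total cell number were expressed as the number of SDs above the mean of the DMSO negative control on the same plate (n=16 control wells per plate). Hits were defined as >=4 SD for oligodendrocytes and >=2 SD for total cells.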

Compound	total cell number
Cc1ncc(CNC(=O)N(CCCl)N=O)c(N)n1 [Nimustine hydrochloride]	-2.66
C[C@H]1CCC/C=C/[C@@H]2C[C@H](O)C[C@H]2[C@H](O)/C=C/C(=O)O1 [Brefeldin A]	-15.7
COc1ccc2[nH]cc(CCN)c2c1 [O-Methylserotonin hydrochloride]	-2.98
N.N.[Cl][Pt][Cl] [Cisplatin]	0.8 ± 2.7
CC(=O)Nc1ccc(Cc2ccc(NC(C)=O)cc2)cc1	0.667
CCCN1C[C@H](CSC)C[C@@H]2c3cccc4[nH]cc(c34)C[C@H]21 [Pergolide mesylate]	-1.49
CCCN1C[C@H](CSC)C[C@@H]2c3cccc4[nH]cc(c34)C[C@H]21 [Pergolide methanesulfonate]	-1.89
CCCCc1ccc(C(=O)O)nc1 [Fusaric acid]	-1.95
OC1CCCCC1N1CCC(c2ccccc2)CC1 (racemic) [(±)-Vesamicol hydrochloride]	6.89
COc1cc(-n2c(=S)[nH]c3ccccc3c2=O)c(Cl)cc1Cl [Mdivi-1]	0.904
C[N+](C)(C)CC#CCOC(=O)Nc1cccc(Cl)c1	-2.38
CN1CCC[C@@H]1Cc1c[nH]c2ccc(Nc3ncccc3[N+](=O)[O-])cc12	-2.61
C[C@]12N[C@H](Cc3ccccc31)c1ccccc12 [MK-801 (Dizocilpine)]	-0.24
O=C1CCCN1CC#CCN1CCCC1 [Oxotremorine sesquifumarate salt]	-1.3
CC(N)Cc1c[nH]c2ccc(O)cc12 (stereo not drawn) [alpha-Methyl-5-hydroxytryptamine maleate]	-1.3
CC(=O)Nc1ccc(OC[C@](C)(O)C(=O)Nc2ccc([N+](=O)[O-])c(C(F)(F)F)c2)cc1 [Andarine]	0.684
c1ccc(C2(c3ccccc3)CC2C2=NCCN2)cc1 (configuration not stated) [Cibenzoline succinate]	-1.65
CCCN(CCC)C1CCc2ccc(O)cc2C1 (stereo not drawn) [R-(+)-7-Hydroxy-DPAT hydrobromide]	0.303
C[C@](O)(COc1ccc(C#N)cc1)C(=O)Nc1ccc(C#N)c(C(F)(F)F)c1	3.27
CC(C)N(CCNC(=O)CN1CCCC1=O)C(C)C [Pramiracetam]	-0.984
CNCC(=O)c1ccc(O)c(O)c1 [Adrenalone HCl]	-0.24
O=C[C@H](Cl)[C@@H](O)[C@H](O)[C@H](O)CO [2-Chloro-2-deoxy-D-glucose]	-0.302
NNC(N)=O [Semicarbazide hydrochloride]	0.198
Fc1ccc(C(OCCN2CCN(CCCc3ccccc3)CC2)c2ccc(F)cc2)cc1	-6.27
C=C(C)[C@H]1Cc2c(ccc3c2O[C@@H]2COc4cc(OC)c(OC)cc4[C@@H]2C3=O)O1 [Rotenone]	-9.05
COC(=O)C1=CCCN(C)C1 [Arecoline hydrobromide]	0.0722

Compound	total cell number
COC(=O)C1=CCCN(C)C1 [Arecoline]	0.396
C[C@]12CC[C@H]3[C@@H](CC[C@@]45O[C@@H]4C(O)=C(C#N)C[C@]35C)[C@@H]1CC[C@@H]2O [Trilostane]	-3.36
NNC(=O)c1ccc(O)cc1 [4-Hydroxybenzhydrazide]	-1.31
COc1ccc(Cc2nccc3cc(OC)c(OC)cc23)cc1OC [Papaverine hydrochloride]	3.21
CNCCc1c[nH]c2ccc(O)cc12 [N-omega-Methyl-5-hydroxytryptamine oxalate salt]	-0.776
NCCCP(=O)(O)O [3-Aminopropylphosphonic acid]	-1.08
NCC(O)c1ccc(O)cc1 (racemic) [(±)-Octopamine hydrochloride]	-1.1
NCC(O)c1ccc(O)cc1 (racemic) [(+,-)-Octopamine HCl]	-1.15
C[C@@H]1O[C@@H](O[C@H]2C[C@@H](O)[C@]3(CO)[C@H]4[C@H](O)C[C@]5(C)[C@@H](C6=CC(=O)OC6)CC[C@]5(O)[C@@H]4CC[C@]3(O)C2)[C@H](O)[C@H](O)[C@H]1O [Ouabain]	4.31 ± 5.1
Clc1cc(I)cc(Cl)c1NC1=NCCN1 [p-Iodoclonidine hydrochloride]	-1.3
C[C@@H](N)Cc1cnc[nH]1 [Histamine, R(-)-alpha-methyl-, dihydrochloride]	-0.785
CCC1(c2ccc(N)cc2)CCC(=O)NC1=O (configuration not stated) [Aminoglutethimide]	-5.69
C[N+]1(C)CCN(c2ccccc2)CC1 [1,1-Dimethyl-4-phenyl-piperazinium iodide]	-0.947
CCN(C)C(=O)Oc1cccc([C@H](C)N(C)C)c1 [Rivastigmine Tartrate]	-0.723
NC(=O)COc1c(F)cc(SCCNS(=O)(=O)c2ccccc2)cc1F	-1.95
CCCN1CCC[C@H](c2cccc(O)c2)C1 [R(+)-3PPP hydrochloride]	-0.98
CN(C(=O)Cc1ccc(Cl)c(Cl)c1)C(CN1CCCC1)c1cccc(OCC(=O)O)c1 (configuration not stated) [ICI 204,448 hydrochloride]	0.46
NCCc1ccc(O)cc1 [4-Hydroxyphenethylamine hydrochloride]	-0.125
CCn1cc(C(=O)O)c(=O)c2cc3c(cc21)OCO3 [Oxolinic acid]	-2.76
C[C@]12CC[C@H](O)C[C@@H]1CC[C@@H]1[C@@H]2CC[C@]2(C)C(=O)CC[C@@H]12 [Epiandrosterone]	-11.1
C[N+]1(C)[C@@H]2C[C@@H](OC(=O)[C@H](CO)c3ccccc3)C[C@H]1[C@@H]1O[C@@H]12 [(-)-Scopolamine methyl bromide]	-1.83
C[N+]1(C)[C@@H]2C[C@@H](OC(=O)[C@H](CO)c3ccccc3)C[C@H]1[C@@H]1O[C@@H]12 [Methscopolamine]	-2.37
CCN1C[C@]2(COC)[C@H](O)C[C@H](OC)[C@@]34[C@@H]5C[C@@]6(O)[C@H](OC(=O)c7ccccc7)[C@@H]5[C@@](OC(C)=O)([C@@H]([C@H](OC)[C@H]23)[C@@H]14)[C@@H](O)[C@@H]6OC [Aconitine]	-0.0482
c1ccc2c(c1)[I+]c1ccccc1-2 [Diphenyleneiodonium chloride]	-10.5
CC(N)Cc1cccc(C(F)(F)F)c1 (single isomer, unassigned; (+)) [(+)-Norfenfluramine hydrochloride]	-0.695
CNc1ccc2oc(C[C@H]3O[C@@]4(CC[C@H]3C)O[C@H]([C@H](C)C(=O)c3ccc[nH]3)[C@H](C)C[C@H]4C)nc2c1C(=O)O [Calcimycin]	-12.8

Compound	total cell number
CCCN1CCc2cccc3c2[C@H]1Cc1ccc(O)c(O)c1-3 [R(-)-Propylnorapomorphine hydrochloride]	-5.94
CC(=O)NBr [N-Bromoacetamide]	-0.843
CC(C)NP(=O)(NC(C)C)OP(=O)(NC(C)C)NC(C)C [Tetraisopropyl pyrophosphoramide]	-0.638
Cc1c2ccncc2c(C)c2c1[nH]c1ccccc12 [Ellipticine]	-11.1
O=P1(NCCCl)OCCCN1CCCl (configuration not stated) [Ifosfamide]	-2.07
Oc1ccc2c3c1O[C@H]1c4oc5ccccc5c4C[C@@]4(O)[C@@H](C2)N(CC2CC2)CC[C@]314 [Naltriben methanesulfonate]	-3.96
CN1CC[C@@]2(C)c3cc(OC(=O)Nc4ccccc4)ccc3N(C)[C@@H]12 [Phenserine]	-2.32
N#CCCN [3-Aminopropionitrile fumarate]	-2.24
NC(=O)CN1CCCC1=O [Piracetam]	-1.06 ± 0.74
Cc1ccc(S(=O)(=O)N[C@@H](CCCCN)C(=O)CCl)cc1 [Na-p-Tosyl-L-lysine chloromethyl ketone hydrochloride]	-1.34
CCCN1CCC[C@@H](c2cccc(O)c2)C1 [S(-)-3PPP hydrochloride]	-2.58
O=C(Oc1ccc([N+](=O)[O-])cc1)N1CCC(C(O)(c2ccc3c(c2)OCO3)c2ccc3c(c2)OCO3)CC1	1.26
Cc1cccc(C)c1NC1=NCCCS1 [Xylazine HCl]	-0.661
Cc1cccc(C)c1NC1=NCCCS1 [Xylazine hydrochloride]	-0.676
O=C1CCC[C@@H]2[C@H]3CCCN4CCC[C@@H](CN12)[C@@H]34 [(+)-Matrine]	2.62
CCNC(=O)[C@H]1O[C@@H](n2cnc3c(N)ncnc32)[C@H](O)[C@@H]1O [5'-N-Ethylcarboxamidoadenosine]	-0.826
COc1cc2c(cc1OC)C1CC(=O)C(CC(C)C)CN1CC2 (configuration not stated) [Tetrabenazine]	-0.277
NCCc1c[nH]c2ccccc12 [Tryptamine hydrochloride]	-0.554
Clc1ccc(N2C[C@H]3CC[C@@H](C2)N3)nn1	-0.523
O=C(O[C@H]1C[N+]2(CCCOc3ccccc3)CCC1CC2)C(O)(c1cccs1)c1cccs1 [Aclidinium Bromide]	4.34
CC(C)(C)[C@]1(O)CC2OC(=O)CC23C(=O)OC2OC(=O)[C@H](O)C231 (some centres not stated) [Bilobalide]	1.36
Cc1cc(SCc2sc(-c3ccc(C(F)(F)F)c(F)c3)nc2C)ccc1OCC(=O)O	0.239
CC[C@@H]1/C=C/C=C/C[C@H](C)[C@H](O)[C@](C)(O)C(=O)[C@H](C)[C@@H](O)[C@H](C)C(=O)[C@H](C)[C@@H](O)[C@H](C)/C=C/C(=O)O[C@H]2[C@@H](C)[C@@H](CC1)O[C@@]1(CC[C@@H](C)[C@@H](C[C@H](C)O)O1)[C@@H]2C [Oligomycin A]	-27.5
CCCN(CCC)CCc1ccc(O)c(O)c1 [Dipropyldopamine hydrobromide]	-2.32
Ic1ccccc1CNC1C2CCN(CC2)C1C(c1ccccc1)c1ccccc1 [L-703,606 oxalate salt hydrate]	-11.4
